Measurements: the supplement of paper PMC10126150
Values marked as one replicate rest on one cluster of the flow cell; about a third of the high ones do not repeat.
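Also: ATP exposure 15 min at 22 °C before imaging.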

What follows are sequences tested on ATP (assay: switch fluorescence ratio, 500 uM ATP over buffer (Cy3 cluster intensity, sum of 5 cycles each) (fold (ratio)); higher = stronger signal-on switching upon ATP binding; sequences stand for … in TCGTCGGCAGCGTCAGATGTGTATAAGAGACAGTTTTTTTTTTTTTTTTTTTTTTTTT…TC). Details: aptamer strand: ATP DNA aptamer (quencher-CACCTGGGGGAGTATTGCGGAGGAAGG + anchor), 100 nM annealed; ATP concentration: 500 uM; one replicate.
Summary of the method: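 Between each of five buffer/ATP cycles, the flow-cell was stripped with NaOH and re-annealed. Each cycle imaged Cy3-labelled switching-strand clusters, annealed to 100 nM quencher-labelled ATP aptamer on a modified Illumina MiSeq flow-cell, first in selection buffer and then after 15 min with 500 uM ATP at 22 °C. The fluorescence ratio is summed target-cycle over summed buffer-cycle Cy3 intensity per cluster, averaged per switch-domain sequence, with clusters outside 100-1000 RFU excluded.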
GTCACACCAT was tested, and the switch fluorescence ratio was 1.03.
ACAAATACGG was tested, and the switch fluorescence ratio was 1.09.
CCTGGACTGT was tested, and the switch fluorescence ratio was 1.05.
In the case of GCGGACGGGA, the switch fluorescence ratio is reported as 1.01.
GCTTAGGGCC was tested, and the switch fluorescence ratio was 1.01.
AACTAACAGA showed a switch fluorescence ratio of 1.07.
CATTTACTTT gave a switch fluorescence ratio of 1.03.
Sequence GTGTGGAGTA has a switch fluorescence ratio of 1.01.
For GATCGCCCAA, the switch fluorescence ratio was 1.03.
Sequence GAGGTAGGCA has a switch fluorescence ratio of 1.
Work on AGCATGTGCG yielded a switch fluorescence ratio of 0.885.
In the case of TTTATAAGA, the switch fluorescence ratio is reported as 0.971.
For TTCATGTTTG, the switch fluorescence ratio was 1.01.
GGCTCTGGC was tested, and the switch fluorescence ratio was 0.98.
In the case of ATCATTAAGC, the switch fluorescence ratio is reported as 0.983.
ATCTTGGTA showed a switch fluorescence ratio of 1.01.
With TTCATCTTTT the switch fluorescence ratio was 0.994.
Work on TCTGGACTTT yielded a switch fluorescence ratio of 1.
Work on GAGATCCC yielded a switch fluorescence ratio of 1.02.
For GCCATAACTC, the switch fluorescence ratio was 1.06.
In the case of AGATGAGCTC, the switch fluorescence ratio is reported as 0.981.
TTAAGCCGTC gave a switch fluorescence ratio of 1.06.
In the case of CATGTCTTTT, the switch fluorescence ratio is reported as 0.981.
ATAATTATG showed a switch fluorescence ratio of 0.99.
In the case of ACTCGCTTGG, the switch fluorescence ratio is reported as 1.08.
AATGTCGTTT gave a switch fluorescence ratio of 1.02.
TACATTCCAG showed a switch fluorescence ratio of 0.995.
For GAAGAGCCGA, the switch fluorescence ratio was 0.966.
CAGCCCGAGT gave a switch fluorescence ratio of 0.991.
CGGAACGATT showed a switch fluorescence ratio of 1.04.
Work on ATGGACACT yielded a switch fluorescence ratio of 1.
ACTTTGACCA gave a switch fluorescence ratio of 1.12.
With GGCAGCATGG the switch fluorescence ratio was 1.06.
Work on AGGTATGATC yielded a switch fluorescence ratio of 1.01.
CAAGGACGAA showed a switch fluorescence ratio of 1.07.
Sequence TCCACCAAAG has a switch fluorescence ratio of 1.11.
CCAGCAGTCG gave a switch fluorescence ratio of 1.1.
With ACCGCCTCTT the switch fluorescence ratio was 1.14.
TATGCGGTTT showed a switch fluorescence ratio of 1.04.
GTTTAACCTA was tested, and the switch fluorescence ratio was 0.988.
TTGAACCTGA showed a switch fluorescence ratio of 1.49.
Sequence ACTATATCAT has a switch fluorescence ratio of 1.11.
GGGTTCAATG gave a switch fluorescence ratio of 1.01.
In the case of CGGATCGTGA, the switch fluorescence ratio is reported as 0.999.
GGGACGGGCT gave a switch fluorescence ratio of 1.26.
Sequence GGATATGGAG has a switch fluorescence ratio of 1.05.
GGAATGCGAA was tested, and the switch fluorescence ratio was 1.06.
In the case of TATCAATGGG, the switch fluorescence ratio is reported as 1.05.
ACACACTAGT gave a switch fluorescence ratio of 1.4.
For GTGGGCAACA, the switch fluorescence ratio was 1.
TGCTTGGTTC showed a switch fluorescence ratio of 0.95.
Work on GATTGATA yielded a switch fluorescence ratio of 0.989.
TTCATCCGTG was tested, and the switch fluorescence ratio was 1.31.
Work on CTTGAGCCGG yielded a switch fluorescence ratio of 0.999.
TCGTACGTAT was tested, and the switch fluorescence ratio was 1.02.
In the case of TGGTCTTGGA, the switch fluorescence ratio is reported as 0.995.
TTAGCACACT showed a switch fluorescence ratio of 1.12.
With GAGTACGCGT the switch fluorescence ratio was 1.04.
TCCGCCTGTT was tested, and the switch fluorescence ratio was 1.12.
In the case of GTTGGGCATC, the switch fluorescence ratio is reported as 0.993.
GCGATTACTA gave a switch fluorescence ratio of 1.02.
For CAATATCGGG, the switch fluorescence ratio was 0.982.
Sequence GCAGATTTG has a switch fluorescence ratio of 1.08.
CCCTTTGAGT gave a switch fluorescence ratio of 1.02.
CGTTTTGAAA showed a switch fluorescence ratio of 1.22.
Work on CAGTCAGCGT yielded a switch fluorescence ratio of 1.24.
CGAACCGATG showed a switch fluorescence ratio of 1.1.
Sequence TACCGGACTT has a switch fluorescence ratio of 1.15.
Work on AAGTAGTGTA yielded a switch fluorescence ratio of 1.01.
TCCAACCAAG gave a switch fluorescence ratio of 1.06.
In the case of GGGCTCAGAC, the switch fluorescence ratio is reported as 1.02.
With TCTAGCCATT the switch fluorescence ratio was 0.991.
Work on ACAAATGGGC yielded a switch fluorescence ratio of 1.03.
For TCCGCGCCTT, the switch fluorescence ratio was 1.53.
In the case of GGCATCAGTG, the switch fluorescence ratio is reported as 0.98.
In the case of GTTAGATCAG, the switch fluorescence ratio is reported as 1.03.
With AGTAAACGAC the switch fluorescence ratio was 1.04.
For AGAATAGCCT, the switch fluorescence ratio was 1.07.
Work on TCGGTGGCTA yielded a switch fluorescence ratio of 0.942.
In the case of AGGTCTCAGC, the switch fluorescence ratio is reported as 0.997.
CACAATCTAC showed a switch fluorescence ratio of 1.16.
Work on GATGGGTGTG yielded a switch fluorescence ratio of 0.981.
For CCGTAAAA, the switch fluorescence ratio was 1.1.
In the case of GGTTATATGC, the switch fluorescence ratio is reported as 0.967.
ACGTCATCTC showed a switch fluorescence ratio of 1.17.
In the case of TTTCATTGC, the switch fluorescence ratio is reported as 0.979.
ACAGTGAATA was tested, and the switch fluorescence ratio was 1.04.
GGCTTTGAAT gave a switch fluorescence ratio of 0.963.
Work on AGCGGCTTGG yielded a switch fluorescence ratio of 0.967.
For TTGGCCCAAG, the switch fluorescence ratio was 1.06.
GCGAGATAGT gave a switch fluorescence ratio of 1.02.
Work on CCATTTCCT yielded a switch fluorescence ratio of 1.
ACATGCTGAA gave a switch fluorescence ratio of 0.99.
CGAGCGTGTA showed a switch fluorescence ratio of 1.03.
CACAGGCATC was tested, and the switch fluorescence ratio was 0.989.
In the case of AAGAAATTGT, the switch fluorescence ratio is reported as 1.16.
For TAAGGCCCGC, the switch fluorescence ratio was 1.05.
In the case of AGGATTGTCC, the switch fluorescence ratio is reported as 0.996.
CCTTTTAGC was tested, and the switch fluorescence ratio was 1.05.
For CAAAAAGTTC, the switch fluorescence ratio was 1.02.
Sequence GTAACAGGTT has a switch fluorescence ratio of 1.01.
CCTAAGGGAA showed a switch fluorescence ratio of 1.08.
For TTCAACTCGC, the switch fluorescence ratio was 1.8.
TTTAAGCGAG was tested, and the switch fluorescence ratio was 1.01.
CTTAACAAGG was tested, and the switch fluorescence ratio was 0.986.
GGCTGTGCTT showed a switch fluorescence ratio of 1.02.
ACGAGATAAA was tested, and the switch fluorescence ratio was 0.996.
Sequence GGTTTTACAT has a switch fluorescence ratio of 1.
In the case of GTGAGAGAAT, the switch fluorescence ratio is reported as 1.05.
ATTAAGTTGT showed a switch fluorescence ratio of 0.972.
With ACTCATCGTT the switch fluorescence ratio was 1.06.
Work on TAGGAATCA yielded a switch fluorescence ratio of 0.977.
CCCGCGTGTG showed a switch fluorescence ratio of 1.05.
Work on ATGACTTAGC yielded a switch fluorescence ratio of 1.05.
CTATACCAGC gave a switch fluorescence ratio of 1.07.
With CCTTAAGTGG the switch fluorescence ratio was 1.01.
CACTGGGCCT was tested, and the switch fluorescence ratio was 1.05.
Sequence TTGATTCTCA has a switch fluorescence ratio of 1.
With ATCCGCGTAA the switch fluorescence ratio was 4.04.
With AATGAAGACT the switch fluorescence ratio was 1.03.
Work on AGGAAGAATG yielded a switch fluorescence ratio of 1.01.
With TTCTGTTCAA the switch fluorescence ratio was 1.02.
With GACCGGAAAA the switch fluorescence ratio was 1.05.
CATAGAGGGG gave a switch fluorescence ratio of 0.991.
For TTGAAGCGCG, the switch fluorescence ratio was 1.01.
TAATCCATA gave a switch fluorescence ratio of 1.03.
AAGATCGGGC was tested, and the switch fluorescence ratio was 0.983.
TATAACGGGG showed a switch fluorescence ratio of 0.976.
GTTATCTACC was tested, and the switch fluorescence ratio was 1.01.
CGACGGATTG gave a switch fluorescence ratio of 0.985.
Work on AAGAGTCAGC yielded a switch fluorescence ratio of 0.964.
With TCTATAATTA the switch fluorescence ratio was 0.988.
GAAATGACCA showed a switch fluorescence ratio of 0.954.
AATGTGAATC gave a switch fluorescence ratio of 1.
TGACATGGGA gave a switch fluorescence ratio of 0.949.
Work on TATAAATCGT yielded a switch fluorescence ratio of 1.04.
ACCTGGTTT gave a switch fluorescence ratio of 1.
Sequence ATATCCACAA has a switch fluorescence ratio of 1.24.
Work on AACTGAATAC yielded a switch fluorescence ratio of 1.6.
For ATATGTTCG, the switch fluorescence ratio was 0.999.
ATACGGATTA gave a switch fluorescence ratio of 1.03.
Work on CTCTGGAAAG yielded a switch fluorescence ratio of 1.02.
CAACAAAACG showed a switch fluorescence ratio of 1.03.
TTGTAGCGG showed a switch fluorescence ratio of 1.09.
Work on CTCAGTAA yielded a switch fluorescence ratio of 1.7.
GATCGTAGCA showed a switch fluorescence ratio of 0.99.
TTTCAATCCG was tested, and the switch fluorescence ratio was 1.04.
GAGGGTACAT gave a switch fluorescence ratio of 1.02.
TGCGTGCTCA was tested, and the switch fluorescence ratio was 1.
Sequence ACGTTAGTTA has a switch fluorescence ratio of 0.989.
AGAATTGTCT was tested, and the switch fluorescence ratio was 0.974.
In the case of AAGGAAATGA, the switch fluorescence ratio is reported as 1.04.
CTCGACATGT showed a switch fluorescence ratio of 1.02.
For TAATGGGCCT, the switch fluorescence ratio was 1.01.
TTGTCGGAAC showed a switch fluorescence ratio of 1.02.
For AATCGCATCG, the switch fluorescence ratio was 1.06.
For TTCGTATGTC, the switch fluorescence ratio was 1.01.
For GAAATTTGAT, the switch fluorescence ratio was 0.986.
With TGCCTCAGGT the switch fluorescence ratio was 1.28.
Work on AGGTCGGACG yielded a switch fluorescence ratio of 0.986.
Work on TTGCTGAATT yielded a switch fluorescence ratio of 0.984.
CGAGGCAGGA showed a switch fluorescence ratio of 2.15.
Work on GGAACTCGTG yielded a switch fluorescence ratio of 0.982.
For GATTGACTCA, the switch fluorescence ratio was 0.985.
Sequence ATGAACCCGT has a switch fluorescence ratio of 1.04.
In the case of TATAGACTCG, the switch fluorescence ratio is reported as 0.977.
In the case of CACTCCGGGT, the switch fluorescence ratio is reported as 1.23.
In the case of TCATATGGGA, the switch fluorescence ratio is reported as 1.04.
CTCTACCTAC was tested, and the switch fluorescence ratio was 1.46.
For ATCAGGAGTT, the switch fluorescence ratio was 0.976.
Sequence TTATATCAGT has a switch fluorescence ratio of 0.964.
TGAAGCACCT gave a switch fluorescence ratio of 1.36.
AAAGTTCGCC was tested, and the switch fluorescence ratio was 1.01.
Work on GTCCTTGTTG yielded a switch fluorescence ratio of 0.994.
GCAGATATGA gave a switch fluorescence ratio of 1.07.
Sequence GAACACGATT has a switch fluorescence ratio of 0.998.
For CATTACATGA, the switch fluorescence ratio was 0.974.
Sequence AGTTTGGCT has a switch fluorescence ratio of 1.06.
Sequence GTGCTTCAGA has a switch fluorescence ratio of 0.977.
For GGACTTTATC, the switch fluorescence ratio was 0.993.
CAGGTGACTG was tested, and the switch fluorescence ratio was 1.03.
With TCCTCGTTG the switch fluorescence ratio was 1.
With CAGGCGCATT the switch fluorescence ratio was 1.81.
AAATGGGGAG was tested, and the switch fluorescence ratio was 0.947.
With CCGAGGATGA the switch fluorescence ratio was 1.12.
ATGGAGTACG gave a switch fluorescence ratio of 0.997.
ATTCCTGCGT was tested, and the switch fluorescence ratio was 1.46.
Sequence ACAACTGGGA has a switch fluorescence ratio of 1.04.
In the case of AAGAATAGC, the switch fluorescence ratio is reported as 1.01.
For GCTTGACCCA, the switch fluorescence ratio was 1.03.
For CAACCCCCAC, the switch fluorescence ratio was 1.45.
With TGGTTTGAG the switch fluorescence ratio was 1.
GCCTGGAGC was tested, and the switch fluorescence ratio was 1.01.
ACATGGGAAG gave a switch fluorescence ratio of 1.
GGTAGTACAT gave a switch fluorescence ratio of 1.
Sequence AGTGATGAAC has a switch fluorescence ratio of 0.979.
TCGAGAACGG gave a switch fluorescence ratio of 0.981.
Work on TTTGATGCCT yielded a switch fluorescence ratio of 1.03.
In the case of CTAATTCCTA, the switch fluorescence ratio is reported as 1.01.
Sequence CGCGAGCGGT has a switch fluorescence ratio of 1.04.
Work on GCTTTAGCGG yielded a switch fluorescence ratio of 0.977.
